# Source: PubChem BioAssay AID360 (National Center for Advancing Translational Sciences (NCATS), 2006)
# Out of some 48,000 compounds screened, about 550 (1.1%) were called active. Roughly 4% stayed inconclusive and do not appear here. Cut-off read from the data, not from the text of the source: active = potency below about 15 µM; inconclusive = mostly about 16 µM to 33 µM; inactive = weaker than that. The list shows a part of the results.
# Biological target: Lysosomal acid glucosylceramidase (Homo sapiens) (UniProt P04062)
# Sequence of UniProt P04062 (P04062 whole entry, looked up): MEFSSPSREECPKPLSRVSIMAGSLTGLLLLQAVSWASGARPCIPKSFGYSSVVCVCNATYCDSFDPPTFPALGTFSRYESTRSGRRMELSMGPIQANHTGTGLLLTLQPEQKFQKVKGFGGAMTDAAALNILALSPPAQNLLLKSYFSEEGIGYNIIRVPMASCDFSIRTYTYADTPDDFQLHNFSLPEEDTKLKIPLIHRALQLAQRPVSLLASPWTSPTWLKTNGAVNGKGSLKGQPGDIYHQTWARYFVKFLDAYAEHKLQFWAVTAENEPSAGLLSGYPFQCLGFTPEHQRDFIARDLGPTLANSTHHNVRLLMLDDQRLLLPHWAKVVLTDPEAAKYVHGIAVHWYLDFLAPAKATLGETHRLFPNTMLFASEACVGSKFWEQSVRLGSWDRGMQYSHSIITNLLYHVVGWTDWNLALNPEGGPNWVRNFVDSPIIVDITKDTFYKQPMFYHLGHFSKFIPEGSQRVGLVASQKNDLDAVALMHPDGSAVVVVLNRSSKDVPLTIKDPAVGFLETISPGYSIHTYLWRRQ
# Test: Glucocerebrosidase;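 note: the screen sought inhibitors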
# Conditions: purified enzyme, resorufin glucoside fluorescence (screen aimed at inhibitors), 20 min
# Outline: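 Compounds titrated against 0.2 nM normal enzyme, 30 uM resorufin beta-D-glucopyranoside substrate, citrate/phosphate buffer with taurocholate and tween-20, pH 5.9. Reaction ran 20 min at room temperature; fluorescence (Ex 548/Em 600) gave AC50.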
# Potency is the fitted concentration of half-maximal effect.
row,Compound,Potency
1,COc1cc(CN2CCN(c3cc(C)ccc3C)CC2)ccc1O,inactive: > 76.9 µM
2,Cc1cccc(-n2c(O)c(C=NCc3cccnc3)c(=O)[nH]c2=O)c1C,inactive: > 76.9 µM
3,O=C1NC(=O)N(C2CCCCC2)C(=O)C1C1c2ccccc2C(=O)N1Cc1ccccc1 (stereo not drawn),inactive: > 76.9 µM
4,O=C(C1CC(=O)N(c2ccc(F)c(Cl)c2)C1)N1CCC2(CC1)OCCO2 (stereo not drawn),inactive: > 76.9 µM
5,O=P1(NC2CCCC2)COc2ccccc2OC1,inactive: > 76.9 µM
6,COc1cccc(-n2nc(C(=O)N3CCC4(CC3)OCCO4)c3ccccc3c2=O)c1,inactive: > 76.9 µM
7,O=P(/C(=N/O)N1CCCCC1)(N1CCOCC1)N1CCOCC1,inactive: > 76.9 µM
8,Cc1cc(N2C(=O)C3CCCN3C2c2ccc(Cl)c(Cl)c2)no1 (stereo not drawn),inactive: > 76.9 µM
9,O=C1CC(=O)N(c2ccc3c(c2)OCO3)C(=O)N1,inactive: > 76.9 µM
10,O=C(COc1ccc(S(=O)(=O)N2CCCCC2)cc1)N1CCN(Cc2ccccc2)CC1,inactive: > 76.9 µM
11,O=c1[nH]c(=O)n(-c2cccc(Cl)c2)c(O)c1/C=N/c1ccccn1,inactive: > 76.9 µM
12,NC(=O)CN1C2CCC1CC(NC(=O)C1CC1)C2 (stereo not drawn),inactive: > 76.9 µM
13,COc1ccccc1N(CC(=O)NC1CCCCC1)C(=O)c1cnn(C(C)C)c1,inactive: > 76.9 µM
14,O=C(Nc1cccnc1)c1c(O)c2c(n(Cc3ccccc3)c1=O)CCCC2,inactive: > 76.9 µM
15,COc1ccc(C(CC(=O)N2CCC3(CC2)OCCO3)NS(=O)(=O)c2ccc(OC)cc2)cc1 (stereo not drawn),inactive: > 76.9 µM
16,C=CCn1c(O)c(C(C)=NC2CC2)c(=O)[nH]c1=O,inactive: > 76.9 µM
17,CSCCC(N=Cc1c(O)n(-c2ccc(F)cc2)c(=O)[nH]c1=O)C(=O)O (stereo not drawn),inactive: > 76.9 µM
18,O=C(c1cc(-c2ccccc2)nc2ccccc12)N1CCC2(CC1)OCCO2,inactive: > 76.9 µM
19,CCC(=NCc1cccnc1)c1c(O)n(C2CCCCC2)c(=O)[nH]c1=O,inactive: > 76.9 µM

row,Compound,Potency
1,C[N+]12CCC(CC1)C(C#N)(N1CCOCC1)C2 (stereo not drawn),inactive: > 76.9 µM
2,O=C(c1cccc(N2CCCC2=O)c1)N1CCC2(CC1)OCCO2,inactive: > 76.9 µM
3,NC(=O)C1(N2CCCCC2)CCN(Cc2ccccc2)CC1,inactive: > 76.9 µM
4,Cc1nc2cc(C(F)(F)F)ccc2n1C1CCN(Cc2nnnn2Cc2ccc3c(c2)OCO3)CC1,inactive: > 76.9 µM
5,CC(c1ccc(F)cc1)n1cc(C(=O)NCc2ccc3c(c2)OCO3)nn1 (stereo not drawn),inactive: > 76.9 µM
6,C[C@H]1CCC[C@@H](O)CCC/C=C/c2cc(O)cc(O)c2C(=O)O1,inactive: > 76.9 µM
7,COCCOC(=O)C1=C(N)Oc2c(c(=O)oc3ccccc23)C1c1ccncc1 (stereo not drawn),inactive: > 76.9 µM
8,COc1ccc(NC(=O)CN2C3CCC2CC(O)(c2cccnc2)C3)cc1OC (stereo not drawn),inactive: > 76.9 µM
9,O=C(C(Cc1ccccc1)NS(=O)(=O)c1cccc2nsnc12)N1CCC2(CC1)OCCO2 (stereo not drawn),inactive: > 76.9 µM
10,O=C1C2CCCN2C(c2ccc(Cl)c(Cl)c2)N1c1ccccn1 (stereo not drawn),inactive: > 76.9 µM
11,CC(=O)c1cccc(OCC(O)CN2CC=C(c3ccccc3)CC2)c1 (stereo not drawn),inactive: > 76.9 µM
12,Cc1ccc(CS(=O)(=O)CCC(=O)N2CCC3(CC2)OCCO3)cc1,inactive: > 76.9 µM
13,CCOC(=O)c1cncn1C(C)c1ccccc1 (stereo not drawn),inactive: > 76.9 µM
14,COc1ccccc1CC1/C(=N/O)C2CCN1CC2 (stereo not drawn),inactive: > 76.9 µM
15,CC1CC2(O)c3nonc3CCC2N1O (stereo not drawn),inactive: > 76.9 µM
16,Cc1cc(C)c(C(=O)CN2CCOCC2)c(C)c1,inactive: > 76.9 µM
17,CCCCn1c(O)c(C(C)=Nc2cccc(C(=O)O)c2)c(=O)[nH]c1=O,inactive: > 76.9 µM
18,COc1ccc(-n2c(O)c(C(C)=NCc3ccco3)c(=O)[nH]c2=O)cc1,inactive: > 76.9 µM
19,CCOc1ccccc1N=C1SCCCN1C,inactive: > 76.9 µM
